Assay results reported in the supplement of paper PMC4166925.
± gives the standard deviation of the averaged measurements. Over roughly 33,000 sequences, “E-score (dimensionless, -0.5 to 0.5)” has its median near -0.049; the highest 2% begin near 0.37. Some of the results follow.

The sequences below were run on T1, PmTbr T-box DNA-binding domain (GST fusion) (assay: PBM E-score of 8-mer (E-score (dimensionless, -0.5 to 0.5)); Tbr is Tbrain of the sea star Patiria miniata (Pm) or the sea urchin Strongylocentrotus purpuratus (Sp); higher = stronger binding preference; most listed sequences are background and not binding sites). Conditions: the construct has about 5 more residues each side.
T1 sequence: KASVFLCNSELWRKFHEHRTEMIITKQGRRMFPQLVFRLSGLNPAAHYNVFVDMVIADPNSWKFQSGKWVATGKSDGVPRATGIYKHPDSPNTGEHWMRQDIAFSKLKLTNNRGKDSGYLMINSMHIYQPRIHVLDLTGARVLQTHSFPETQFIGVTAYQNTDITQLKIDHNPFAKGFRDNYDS
Outline: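 GST-fused Tbr T-box DNA-binding domains (the whole T-box plus about five flanking residues) were expressed in BL21 E. coli at 20 °C and purified by glutathione affinity chromatography. Universal Agilent oligonucleotide arrays were made double-stranded by primer extension, incubated with 200 nM protein in PBS (pH 7.5), then scanned and quantified. Every ungapped 8-mer was scored from probe intensities. The Universal PBM Analysis Suite gave each word an enrichment E-score, averaged over duplicate arrays.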

Row | Sequence | PBM E-score of 8-mer
1 | TATGGGAA | -0.202 ± 0.022
2 | AAAAACGA | -0.142 ± 0.05
3 | ACTACAAC | -0.0613 ± 0.028
4 | TCTCCGCA | -0.11 ± 0.1
5 | CAGGTACC | -0.027 ± 0.063
6 | GAAGCGTC | 0.0981 ± 0.0082
7 | GAACGGGC | 0.0503 ± 0.036
8 | CCTCCTCG | -0.0688 ± 0.014
9 | AGTCTGCG | -0.148 ± 0.0098
10 | CCCGACAC | 0.388 ± 0.012
11 | ATCCCATA | -0.0884 ± 0.072
12 | CAAGTTGG | 0.0672 ± 0.011
13 | CATGGTCC | -0.132 ± 0.037
14 | ATACTGCG | -0.0695 ± 0.016
15 | AGTCACAA | 0.106 ± 0.0063
16 | GCAAGCCC | -0.103 ± 0.075
17 | CATGCGGC | -0.0919 ± 0.033
18 | ATAGCAAA | -0.0508 ± 0.04
19 | GTATGAGA | -0.131 ± 0.012
20 | ATGAGGAA | -0.3 ± 0.077
21 | AAGCGCGG | 0.0485 ± 0.038
22 | CCAAGCGA | -0.166 ± 0.035

Row | Sequence | PBM E-score of 8-mer
23 | CACTCTCC | 0.083 ± 0.04
24 | CCTTAATA | -0.1514 ± 0.00062
25 | GATGCATA | -0.0197 ± 0.1
26 | ACTGGTGA | -0.0696 ± 0.0019
27 | CCCCCCCA | -0.0836 ± 0.0076
28 | GGTACAGA | -0.041 ± 0.064
29 | CAAGATAG | -0.0633 ± 0.034
30 | CATCCTGC | -0.3604 ± 0.002
31 | GCGATTAC | -0.0283 ± 0.013
32 | GACCGCGA | 0.194 ± 0.0029
33 | CCACTCAC | 0.153 ± 0.06
34 | GCGTGAGA | 0.368 ± 0.021
35 | ATTTTTGC | 0.0605 ± 0.039
36 | AACCTTTC | -0.105 ± 0.047
37 | ATTGTCGG | 0.0329 ± 0.01
38 | CGGAAAAG | -0.0741 ± 0.0057
39 | AAGAGAGT | -0.115 ± 0.012
40 | AACCAGCA | -0.18 ± 0.047
41 | CTAGAGCC | -0.0119 ± 0.035
42 | CCACAACC | 0.0191 ± 0.096
43 | CTAGGGCC | -0.289 ± 0.0065
44 | CCGATCAC | 0.0996 ± 0.056

Row | Sequence | PBM E-score of 8-mer
45 | TAAACCGA | -0.213 ± 0.046
46 | CGTGGGGA | 0.0599 ± 0.026
47 | AGGGCCAT | -0.257 ± 0.013
48 | GTTCGTCA | 0.0921 ± 0.043
49 | AGCCCTGC | -0.112 ± 0.0035
50 | AACGGCTT | -0.0435 ± 0.0081
51 | CTCATGTC | -0.105 ± 0.03
52 | GCAGGTGA | 0.4392 ± 0.002
53 | AGCCATGG | -0.198 ± 0.017
54 | ATCGGTTC | -0.017 ± 0.073
55 | AGCCTTCC | -0.196 ± 0.054
56 | TACGGCTA | -0.146 ± 0.013
57 | CAGATGAG | -0.15 ± 0.025
58 | GGGGCCAA | -0.131 ± 0.0054
59 | AGAGCTGG | -0.235 ± 0.02
60 | GGAGCCCA | -0.23 ± 0.14
61 | GACTGTAA | -0.0154 ± 0.025
62 | GCCTTTGA | -0.196 ± 0.038
63 | ACTTAGGA | -0.145 ± 0.067
64 | GTAGTTAA | -0.0551 ± 0.011
65 | AGCTCCGA | -0.00647 ± 0.052
66 | CGGGCCCG | 0.108 ± 0.013

Row | Sequence | PBM E-score of 8-mer
67 | CCGCTAAG | 0.0974 ± 0.043
68 | AGTAGATG | -0.151 ± 0.026
69 | CAGGCCAC | -0.228 ± 0.0074
70 | CAGACGCG | 0.143 ± 0.04
71 | GGGAGTAA | -0.123 ± 0.013
72 | CTATTCAA | -0.116 ± 0.04
73 | AGGGGTAC | -0.373 ± 0.021
74 | GTGACACA | 0.416 ± 0.0096
75 | ACCGGGAA | -0.0696 ± 0.086
76 | AGCACGCG | 0.203 ± 0.0078
77 | AGCTTGGC | -0.216 ± 0.08
78 | ACTCATTG | -0.195 ± 0.062
79 | GTAGCCCA | -0.311 ± 0.012
80 | GCAGGGGA | -0.161 ± 0.04
81 | AGCCTGGC | 0.00368 ± 0.04
82 | CGGAACGC | 0.0456 ± 0.012
83 | CGGACCTC | -0.176 ± 0.027
84 | GCTATAGA | -0.0638 ± 0.0077
85 | CCGGAGTC | -0.172 ± 0.011
86 | CGAGACTA | -0.122 ± 0.059
87 | CGCTTGGC | -0.0524 ± 0.1
88 | AGTTTAAC | 0.0571 ± 0.0041

Row | Sequence | PBM E-score of 8-mer
89 | GATGCGGC | -0.0897 ± 0.081
90 | AGTAGACC | -0.297 ± 0.031
91 | CTGCCTGC | -0.128 ± 0.065
92 | CACCCCTA | 0.246 ± 0.033
93 | CACCGCCG | 0.145 ± 0.074
94 | CAATATGA | -0.0875 ± 0.0034
95 | ATACCCTA | 0.0205 ± 0.0012
96 | AATCTCTA | -0.0865 ± 0.062
97 | CGTTGCAA | -0.0113 ± 0.0031
98 | GCTAAGAC | 0.0195 ± 0.0095
99 | CTGTATCC | -0.268 ± 0.015
100 | CAAGCTCG | 0.195 ± 0.053
101 | ATAAACGC | -0.125 ± 0.03
102 | CCGTTGGC | 0.151 ± 0.01
103 | GTGTTTTA | 0.211 ± 0.083
104 | CCTCCGGA | -0.197 ± 0.05
105 | AACGAGGT | 0.0204 ± 0.022
106 | CCGAGCAG | -0.221 ± 0.017
107 | AACACCAG | 0.335 ± 0.022
108 | ATTAACCA | -0.0953 ± 0.0089
109 | AACTGGTA | -0.129 ± 0.099
110 | TTTCAAAA | -0.327 ± 0.0076
